# This is one part of the list.
# Test system: PfAP2-HC AP2 domain (GST-tagged)
# Assay: gcPBM binding intensity (ln(normalized median fluorescence intensity)); higher = stronger DNA binding
# Summary of the method: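 Plasmodium falciparum DNA-binding domains carrying a GST tag were expressed in E. coli and applied for 1 h, at about 25 μg on average, to an Agilent 4 × 180k array. The array held primer-extended double-stranded 36-bp intergenic genomic probes together with negative controls, and binding took place in 1× PBS with 1% milk, 0.2 mg/ml BSA, 0.5% salmon testes DNA and 0.03% Triton X-100. An Alexa488 anti-GST antibody detected bound protein, and the array was scanned at 488 nm. Binding intensity is taken as the highest Masliner-normalised natural-log median intensity across replicate spots of either probe orientation.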
row,Sequence,gcPBM binding intensity (ln)
1,ATATATATATATATATGTACTAATTAATATTTCGAG [XGTACX_site580],9.44
2,ATATATATATATGAATCACACACAAAAAATATAGAG [CACACA_site9298],10.1
3,ATAAAATAATGAAAAACACACATTTTTATTTGTATA [CACACA_site3369],9.7
4,AATAACATGTTATATACACACATTATGAAGTCTTCA [CACACA_site746],9.71
5,ATTGTTTTTTTTTCTTTGTGGAATGAATGAATATAT [XGTACX_negctrl_site603],9.55
6,AAGATTATAAATATATGTACATAAATATATTATATA [XGTACX_site8056],9.64
7,ATAATACTACCTACATGTACTTATATATAAATGAAT [XGTACX_site3417],9.79
8,GTTTTAACAAAATTAGTGCATTTATCAATTATATAA,9.32
9,TTTTTTTTTTCAATGGCACACATTTTAGATTTATGC [CACACA_site1074],9.72
10,ACATCAAGCGGACACACACACACACCGACAGACACA [CACACA_site4361],10.9
11,AAAGAATCAAGAATAGTGCAAATATGTATAACCTTT,9.99
12,ATACAAAAAGTAAAAAGTACTTAACTAAATATATAA [XGTACX_site2335],9.71
13,TTTTCAATATATTAATGTACGAATACGCAAATAAGA [XGTACX_site1613],9.55
14,TTAATAAATAAAAATGCACACAGTTAACATGTTGAA [CACACA_site1200],9.74
15,GCACATAAATATATGACACACACACCGATTATATAT [CACACA_site9003],10.8
16,AAAAAAAAAAAAAAAACACACAAACATCAAATTATT [CACACA_site5083],9.85
17,ATAATAATTTAATACATACACACGTATATCTTTTTT [CACACA_site2041],9.84
18,TTTTTTTTTTTTTTTGCACACACATAATAGGTACAA [CACACA_site3578],9.95
19,GCAGGATTGGTTCAAACACACATATTATATGACTAT [CACACA_site660],9.77
20,ATCTTATATGATCACACACACACGCACAAAACAGAA [CACACA_site4913],10.4
21,TGTGGTTACATGTGCACACACTTATTTCGTTCTTAT [CACACA_site4907],10.4
22,TAAATATATATATACACACACATACACAAAAAAAAA [CACACA_site3580],10.5
23,ATTGCATATAATGGCACACATAAATCCATAATATAT [CACACA_site297],9.74

row,Sequence,gcPBM binding intensity (ln)
1,TTTATATATATATATATATATAATAAATGATACACA [TGCATGCA_negctrl_site392],9.61
2,TATTTTTTTTCTTATACACACCATGCATCAAACTAA [CACACA_site5208],9.72
3,TCAAAAATATTCTGGAGTACCTTTTTAAAGGTATAG [XGTACX_site6893],9.37
4,TTTGCACCGTTTAAGTGTACAGAATTATGACATATA [XGTACX_site6735],9.51
5,ATTAAAAAAATTAAAAGTACACATATTTCAATGATA [XGTACX_site5606],9.4
6,TAAGTTATATGTATATGTACTTATATATATATATAT [XGTACX_site5402],9.66
7,TAAAAAAAAAAAAAAACACACATATAAATATATATA [CACACA_site1243],9.62
8,AAAATTAAAAAGAACACACAAATATATCTATAATAA [CACACA_site7660],10
9,TAATCGAAACAAAGAACATGCAAACATATACCTATA [TGCATGCA_site894],9.65
10,CAAAATTTATGTAAAAGTACAAAAATATAGAAAGAT [XGTACX_site1122],9.88
11,TGTGTTCATCTATGCACACGCATATATATTATTGTT [CACACA_site5985],9.9
12,TTTTATTCCTTCTTTGCACACGTTTAAAAATATATA [CACACA_site2899],9.88
13,AATATAATATAAGGATCACACACAAACACCCATATA [CACACA_site8084],10.3
14,TTTATATAAAAAAATTGTACATATTTATTATAAACA [XGTACX_site2124],9.41
15,TGTATGCATATTTGATGTACGCACATATACTAATTT [XGTACX_site3159],9.7
16,ATAATAAATAAAATAACACACATATATAGATATATA [CACACA_site6224],10
17,TATATTCTTATTATTGCATGCTGCACGAAGATTTTC [TGCATGCA_site831],9.74
18,GTATGTTTGTTATGCACACAAATGCATCTTATTTCC [CACACA_site2690],10
19,TTTAATTATAAGATAACACACAAAAAAAATAAAATA [CACACA_site254],9.86
20,TATTTAATTACATGAACACACATTATGTATTTTTAA [CACACA_site2962],9.74
21,TTTTTATTTAATAATATATTAATCATATAAATAAAT [GTGCAC_negctrl_site210],9.24
22,TAAAAAAAAAAAACAAGTACATATATAAATATATAT [XGTACX_site7537],9.53
23,AAATACTATATCAAGCGTACTTATTTCATGGTAATA [XGTACX_site7878],9.62

row,Sequence,gcPBM binding intensity (ln)
1,TTTAAAATATTTTCTTGTACGAAGGAACATTTCTTA [XGTACX_site4013],9.59
2,AAAAAAAAAAAAAGCACACACACATATGAGTATATA [CACACA_site4682],10.3
3,AATTTCAAATTGTATGTGCACATGTAGAAGTACTTT,9.85
4,GTGCCTTTAAAAAAAAGTACAAAAAAGAACGAATTA [XGTACX_site3714],9.51
5,TATATATATATATATTGTACATTTTTTTTTTTTTTT [XGTACX_site7891],9.39
6,TTTTCATTAAATATATATGCATACCATATGTACATT [GTGCAC_negctrl_site539],9.76
7,TATGTAAAGAGTAAGGGTACATGTATAATACGGCTC [XGTACX_site1283],9.88
8,TTATGGATAAATAAATGTACGTTAAGATAACACAAA [XGTACX_site4208],9.56
9,ATATACATATGTGTGTGTACTTATATCACATTTTTG [XGTACX_site3785],10.1
10,TCGACAAAGGCATATACACACATTTGTAACATAAAT [CACACA_site4471],9.7
11,GTTTTTTTGTTTTAGTGTACCTAAAACTGCATGTAG [XGTACX_site294],9.75
12,ACATAAAATAAATATACACACATATGTATTTATTAT [CACACA_site5648],9.98
13,AAACCGAATTTACATGAATGTAAATTATGTTGTTTT [CACACA_negctrl_site1834],9.6
14,CAAGAATAAAAATACAAGCACACATGTATGAAATAT [CACACA_site3214],10.3
15,ATTTCTCTATAGTAATGTACAAAAAAAAGGAAAAAG [XGTACX_site2757],9.63
16,AATTGCTCGATATATGCACACAGTTTTGTTATTTTT [CACACA_site8465],9.95
17,AACATAAATTACTTTTTACACACTAATATAAAATAC [CACACA_site8297],9.7
18,AAAACACGCGGACACACACACACACGCCCACATATA [CACACA_site7105],10.6
19,ACTTTCAAGGATGTACGTACATATGTATTTTATAAC [XGTACX_site6714],9.75
20,ATTTCATTAAAGATTACATGCAATTCTATATTATTT [TGCATGCA_site260],9.64
21,AATTAATTTATTTTATAAATAGTTAGATCGTCATAA [GTGCAC_negctrl_site660],9.3
22,AACATATTTTTTCTTAAACACACACCGATATATATA [CACACA_site8919],9.98
23,AATATATATTTCTAAGATAAAACCCAAGGATAAAAA [CACACA_negctrl_site735],9.62

row,Sequence,gcPBM binding intensity (ln)
1,TCTGTAAATATGTATACACACATATCTGATCAATAT [CACACA_site5743],9.96
2,TTTTTTATGATTAACACACACACAAAAAAAAAAAAA [CACACA_site4130],9.89
3,TCATGTAACCATTCATGTACTCAAAAAAAAAAAAAA [XGTACX_site1027],9.21
4,AAAAAAAAAACAAATACACACGCACCCAAAAAAAAA [CACACA_site8166],10.2
5,AAATGAAAGAACAGCACACATATATATTATATATAA [CACACA_site2002],9.93
6,TTTTATATATATATATATATATATATATATGTATAT [CACACA_negctrl_site173],9.75
7,TTATATATATGTAATTGTACTTTTAATTTTTTTTTA [XGTACX_site4357],9.51
8,TAATTTTTTTTAAATACACACTGAAATGTGAATTTT [CACACA_site4476],9.54
9,TATTTTATAATAGGCACACATATAAAAATATATATA [CACACA_site4127],9.59
10,TAATAAAGTATTTTGCGTACTTATTTTATTCTTCTA [XGTACX_site2095],9.64
11,GCCCCCAAATTATGTGTGCACTTTATATTCCTGAGA [GTGCAC_site9474],9.85
12,TGGCATATATATAAATGTACTTTCTTTCTATCTGTT [XGTACX_site8483],9.75
13,ATTGTGTGAACAAAATGTACATTTTCTCTACATTAA [XGTACX_site1333],9.69
14,AGGTCATACATAAAATGTACATATATATAAATATAT [XGTACX_site7147],9.72
15,TGAACACCCAAATACACACACTCAAAAAAAAAAAAG [CACACA_site5467],9.93
16,ACAAGAATACACCACGCACACACACTAGAGAAAAAA [CACACA_site9276],11.6
17,ATAAAAATAAAAGACGCATGTTCTTAAAATAAGAAC [TGCATGCA_site189],9.66
18,ATATATATATATAATGCACACATTATGAATTATGTA [CACACA_site3384],9.73
19,AAACAAAATGGTAACACACACATATATATATATATA [CACACA_site1939],10.2
20,GTGTGATCTTTTGAAAGTACATTTTTTTTTTTTTTT [XGTACX_site6311],9.48
